Measured values from PMC8294944 (Journal of agricultural and food chemistry, 2020).
Like-named read-outs stand apart in the source and are kept apart here.

Assays:
[1] = biological target: T1, ERβ (MDA-MB-231/β41 breast carcinoma cells) (Homo sapiens, UniProt Q92731); experiment: ERβ-ERE-luciferase induction assay in MDA-MB-231/β41 cells; format: cell-based
[2] = biological target: T1, ERβ (MDA-MB-231/β41 breast carcinoma cells); conditions: ERE-luciferase, MDA-MB-231/β41 cells; mean ± SEM; cited from earlier work
[3] = ERE-luciferase, MDA-MB-231/β41 cells, mean ± SEM

T1 sequence (Q92731 whole entry): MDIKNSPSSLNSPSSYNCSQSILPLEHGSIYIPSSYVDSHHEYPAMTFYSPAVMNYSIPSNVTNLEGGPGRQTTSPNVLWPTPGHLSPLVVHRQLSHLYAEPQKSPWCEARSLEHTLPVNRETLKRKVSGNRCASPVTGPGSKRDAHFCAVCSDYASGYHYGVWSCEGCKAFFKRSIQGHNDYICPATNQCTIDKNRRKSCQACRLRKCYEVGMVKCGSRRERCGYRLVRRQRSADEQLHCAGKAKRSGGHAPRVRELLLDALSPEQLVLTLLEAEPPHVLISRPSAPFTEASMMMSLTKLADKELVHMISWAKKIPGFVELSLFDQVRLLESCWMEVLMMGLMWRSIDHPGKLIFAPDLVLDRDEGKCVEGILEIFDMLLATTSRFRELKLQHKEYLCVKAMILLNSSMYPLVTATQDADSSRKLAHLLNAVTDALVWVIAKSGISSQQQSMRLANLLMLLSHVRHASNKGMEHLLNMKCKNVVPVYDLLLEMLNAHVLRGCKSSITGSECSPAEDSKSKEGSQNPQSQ

Compound	EC50 [1] [nM]	ERβ Maximum efficacy [1, 3]	other results
CC(C)=CCc1c(O)cc(O)c2c(=O)c(-c3ccc(O)cc3)coc12 [8-PG, 8-Prenylgenistein]	300 ± 3	–	Emax ([1]; MDA-MB-231, read-out: ERβ Maximum efficacy): 74 ± 7%
CC(C)=CCc1c(O)cc(O)c2c1O[C@H](c1ccc(O)cc1)CC2=O [8-PN, 8-Prenylnaringenin]	–	–	ERβ Maximum efficacy [2]: 87 ± 9.0^4
CC(C)=CCc1c(O)cc(O)c2c(=O)c(O)c(-c3ccc(O)cc3)oc12 [DMI, Desmethylicaritin]	–	90 ± 11	–
O=C1C[C@@H](c2ccc(O)cc2)Oc2cc(O)cc(O)c21 [NRG, naringenin]	100 ± 40	99 ± 4.0	–
Dehydrogenistein [DGN]	–	114 ± 12	EC50 ([1]; read-out: ERβ EC50 (compounds), ERE-luciferase, MDA-MB-231/β41 cells, mean ± SEM): 20 ± 10 nM
